Laboratory results as given in paper PMC10703884, “Targeting the COMMD4–H2B protein complex in lung cancer” (British Journal of Cancer, 2023).
These are yes or no findings as the source states them, for the method shown. For some assays here: Binding seen in cells or lysates may run through a third protein. Some results given as binding are weak or reduced against the parent protein; the word gives no strength. Sequences can lack the tags named with a protein.

By UniProt entry, the sequences of proteins in these tests, tags left out.
UniProt Q9H0A8: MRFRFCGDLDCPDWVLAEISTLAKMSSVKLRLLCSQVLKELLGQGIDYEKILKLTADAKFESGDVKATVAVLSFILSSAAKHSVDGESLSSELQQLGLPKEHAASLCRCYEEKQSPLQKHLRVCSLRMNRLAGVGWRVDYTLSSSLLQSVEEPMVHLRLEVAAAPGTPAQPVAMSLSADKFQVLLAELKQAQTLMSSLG

How the values were obtained:
[1] = target: T1, FLAG-H2BWT (10-amino acid wild-type H2B peptide with N-terminal FLAG tag and C-terminal nuclear localisation signal); assay: co-IP; FLAG pull-down from cells treated with control or COMMD4 siRNA and then overexpressing FLAG-H2BWT or FLAG-H2BMUT1, blot for COMMD4
T1 sequence: SFVNDIFERIAAKRVKLDS

[2] = target: T2, FLAG-H2BMUT1 (10-amino acid mutant H2B peptide with N-terminal FLAG tag and C-terminal nuclear localisation signal); assay: co-IP; FLAG-H2BWT or FLAG-H2BMUT1 immunoprecipitated from HEK293T (anti-FLAG M2 Dynabeads, NP40 buffer, 4 °C), blot for GST-COMMD4 and FLAG; only the binder purified
T2 sequence: SFVNDKFERIAAKRVKLDS

[3] = target: T1, FLAG-H2BWT (10-amino acid wild-type H2B peptide with N-terminal FLAG tag and C-terminal nuclear localisation signal); assay: as above
[4] = target: T3, H2BMUT1pep, N-terminal biotin-tagged 10-amino acid mutant H2B peptide; assay: pull-down; biotin-tagged H2B peptides held on Streptavidin Dynabeads, recombinant GST-COMMD4 pulled down; NP40 buffer, 4 °C, purified system; both purified
T3 sequence (peptide, biotin on the N-terminus): SFVNDKFERI

[5] = target: T4, H2BWTpep, N-terminal biotin-tagged 10-amino acid wild-type H2B peptide; assay: as above
T4 sequence (peptide, biotin on the N-terminus): SFVNDIFERI

| Substance | binding [1] | binding [2] | binding [3] | binding [4] | binding [5] |
| --- | --- | --- | --- | --- | --- |
| COMMD4 (endogenous) (from UniProt Q9H0A8 1-199) | binds |  |  |  |  |
| recombinant GST-COMMD4 (from UniProt Q9H0A8 1-199) |  | no binding | binds | no binding | binds |
